Test results as given in the supplement of paper PMC4604168 (melanoma cell lines).
This is one part of the list. Most values come without repeats; read them as rough.

Key:
Assay in all cases: cell count relative to DMSO control; melanoma cells; higher = more viable cells
Settings in all cases: library dose: low library concentration; 72 h
[1] = test system: WM115
[2] = test system: WM1716
[3] = test system: WM1745
[4] = test system: WM3526
[5] = test system: WM3619
[6] = test system: WM451Lu
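Further: cell number obtained by counting DAPI-stained nuclei in high-throughput microscope images with image analysis software, screen run in 1,536-well plates.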

| SMILES | cell count [1] | cell count [2] | cell count [3] | cell count [4] | cell count [5] | cell count [6] |
| --- | --- | --- | --- | --- | --- | --- |
| Cc1ccc(Nc2nccc(N(C)c3ccc4c(C)n(C)nc4c3)n2)cc1S(N)(=O)=O [Pazopanib] + CC(C)(C)c1cnc(CSc2cnc(NC(=O)C3CCNCC3)s2)o1 [SNS-032] (first compound 0.4 µM, partner dose 0.01 µM) | 114% | 80.9% | 95.5% | 95.1% | 99.2% | 136% |
| CC1(C)CCC(c2ccc(Cl)cc2)=C(CN2CCN(c3ccc(C(=O)NS(=O)(=O)c4ccc(N[C@H](CCN5CCOCC5)CSc5ccccc5)c(S(=O)(=O)C(F)(F)F)c4)cc3)CC2)C1 + C[C@@H](N)c1ccc(C(=O)Nc2ccnc3[nH]ccc23)cc1 [RKI983] (first compound 0.4 µM, partner dose 0.4 µM) | 89.1% | 33% | 10.9% | 94.5% | 85% | 69.8% |
| CC1(C)CCC(c2ccc(Cl)cc2)=C(CN2CCN(c3ccc(C(=O)NS(=O)(=O)c4ccc(N[C@H](CCN5CCOCC5)CSc5ccccc5)c(S(=O)(=O)C(F)(F)F)c4)cc3)CC2)C1 + COc1ccc(-c2ccc3c(N4CCOCC4)nc(N4C[C@@H](C)O[C@@H](C)C4)nc3n2)cc1CO [KU0063794] (first compound 0.4 µM, partner dose 0.02 µM) | 77.3% | 47.2% | 8.6% | 86.9% | 77% | 79.7% |
| Cc1ccc(Nc2nccc(N(C)c3ccc4c(C)n(C)nc4c3)n2)cc1S(N)(=O)=O [Pazopanib] + Cn1cnc2c(F)c(Nc3ccc(Br)cc3Cl)c(C(=O)NOCCO)cc21 [selumetinib] (first compound 0.4 µM, partner dose 0.015 µM) | 101% | 109% | 86.6% | 58.4% | 81.2% | 129% |
| O=C(/C=C/c1cccnc1)NCCCCC1CCN(C(=O)c2ccccc2)CC1 + Cc1cn(-c2cc(NC(=O)c3ccc(C)c(Nc4nccc(-c5cccnc5)n4)c3)cc(C(F)(F)F)c2)cn1 [nilotinib] (first compound 0.01 µM, partner dose 0.2 µM) | 99.6% | 93.9% | 91.1% | 99.1% | 83.1% | 112% |
| O=C(/C=C/c1cccnc1)NCCCCC1CCN(C(=O)c2ccccc2)CC1 + NC(=O)c1ccc(N(C(N)=O)c2c(F)cccc2F)nc1-c1ccc(F)cc1F [VX702] (first compound 0.01 µM, partner dose 0.4 µM) | 94.9% | 95.2% | 92.7% | 93.3% | 70.6% | 82.3% |
| O=C(/C=C/c1cccnc1)NCCCCC1CCN(C(=O)c2ccccc2)CC1 + CCc1ccc(CCOc2ccc(CC3SC(=O)NC3=O)cc2)nc1 [pioglitazone] (first compound 0.01 µM, partner dose 2 µM) | 103% | 98.9% | 89.7% | 97.9% | 92.7% | 87.7% |
| Cc1ccc(Nc2nccc(N(C)c3ccc4c(C)n(C)nc4c3)n2)cc1S(N)(=O)=O [Pazopanib] + Nc1ccn([C@@H]2O[C@H](CO)[C@@H](O)C2(F)F)c(=O)n1 [gemcitabine] (first compound 0.4 µM, partner dose 0.0004 µM) | 105% | 89.8% | 97.5% | 104% | 86.6% | 72.9% |
| CC1(C)CCC(c2ccc(Cl)cc2)=C(CN2CCN(c3ccc(C(=O)NS(=O)(=O)c4ccc(N[C@H](CCN5CCOCC5)CSc5ccccc5)c(S(=O)(=O)C(F)(F)F)c4)cc3)CC2)C1 + Cn1cnc2c(F)c(Nc3ccc(Br)cc3Cl)c(C(=O)NOCCO)cc21 [selumetinib] (first compound 0.4 µM, partner dose 0.015 µM) | 69.2% | 75.8% | 14.5% | 81% | 77.1% | 92.5% |
| O=C(/C=C/c1cccnc1)NCCCCC1CCN(C(=O)c2ccccc2)CC1 + Cc1nc(Nc2ncc(C(=O)Nc3c(C)cccc3Cl)s2)cc(N2CCN(CCO)CC2)n1 [dasatanib] (first compound 0.01 µM, partner dose 0.004 µM) | 79.4% | 76.6% | 74.9% | 83.8% | 78.4% | 82% |
| Cc1ccc(Nc2nccc(N(C)c3ccc4c(C)n(C)nc4c3)n2)cc1S(N)(=O)=O [Pazopanib] + N#Cc1c(O)c2c(-c3ccc(-c4ccccc4O)cc3)csc2[nH]c1=O [A769662] (first compound 0.4 µM, partner dose 2 µM) | 96.6% | 89.2% | 107% | 88.9% | 106% | 99% |
| O=C(/C=C/c1cccnc1)NCCCCC1CCN(C(=O)c2ccccc2)CC1 + Oc1cc(-c2nc(-c3ccccc3)[nH]c2-c2ccncc2)ccc1Cl [L779450] (first compound 0.01 µM, partner dose 0.2 µM) | 82.8% | 89.8% | 72.1% | 86.9% | 86.5% | 104% |
| O=C(/C=C/c1cccnc1)NCCCCC1CCN(C(=O)c2ccccc2)CC1 + COc1cc2ncnc(Nc3ccc(Oc4ccccc4)cc3)c2cc1OC [SrcI1] (first compound 0.01 µM, partner dose 2 µM) | 83.3% | 128% | 103% | 96.5% | 82.8% | 109% |
| CC1(C)CCC(c2ccc(Cl)cc2)=C(CN2CCN(c3ccc(C(=O)NS(=O)(=O)c4ccc(N[C@H](CCN5CCOCC5)CSc5ccccc5)c(S(=O)(=O)C(F)(F)F)c4)cc3)CC2)C1 + O=C(CCCCCCC(=O)Nc1ccccc1)NO [vorinostat] (first compound 0.4 µM, partner dose 0.08 µM) | 102% | 85.6% | 11.9% | 92.2% | 120% | 74.8% |
| Cc1ccc(Nc2nccc(N(C)c3ccc4c(C)n(C)nc4c3)n2)cc1S(N)(=O)=O [Pazopanib] + NCC(=O)Nc1ccc(-n2nc(C(F)(F)F)cc2-c2ccc3c(ccc4ccccc43)c2)cc1 [OSU03012] (first compound 0.4 µM, partner dose 1 µM) | 84.4% | 98.6% | 123% | 48.5% | 94% | 72.5% |
| Cc1ccc(Nc2nccc(N(C)c3ccc4c(C)n(C)nc4c3)n2)cc1S(N)(=O)=O [Pazopanib] + Cn1cncc1[C@@](N)(c1ccc(Cl)cc1)c1ccc2c(c1)c(-c1cccc(Cl)c1)cc(=O)n2C [tipifarnib] (first compound 0.4 µM, partner dose 0.01 µM) | 97.3% | 83.5% | 91% | 93.5% | 97.5% | 104% |
| O=C(/C=C/c1cccnc1)NCCCCC1CCN(C(=O)c2ccccc2)CC1 + Cc1cc(Nc2cc(N3CCN(C)CC3)nc(/C=C/c3ccccc3)n2)n[nH]1 [ENMD2076] (first compound 0.01 µM, partner dose 0.04 µM) | 97% | 97.9% | 93.5% | 107% | 103% | 106% |
| O=C(/C=C/c1cccnc1)NCCCCC1CCN(C(=O)c2ccccc2)CC1 + CO[C@H]1C[C@@H]2CC[C@@H](C)[C@@](O)(O2)C(=O)C(=O)N2CCCC[C@H]2C(=O)O[C@H]([C@H](C)C[C@@H]2CC[C@@H](OCCO)[C@H](OC)C2)CC(=O)[C@H](C)/C=C(\C)[C@@H](O)[C@@H](OC)C(=O)[C@H](C)C[C@H](C)/C=C/C=C/C=C/1C [everolimus] (first compound 0.01 µM, partner dose 0.02 µM) | 99.6% | 71.5% | 88.7% | 76.1% | 77.4% | 84.2% |
| O=C(/C=C/c1cccnc1)NCCCCC1CCN(C(=O)c2ccccc2)CC1 + COc1ccc(-c2ccc3c(N4CCOCC4)nc(N4C[C@@H](C)O[C@@H](C)C4)nc3n2)cc1CO [KU0063794] (first compound 0.01 µM, partner dose 0.02 µM) | 89.2% | 94.5% | 114% | 93.7% | 90.5% | 67% |
| CC1(C)CCC(c2ccc(Cl)cc2)=C(CN2CCN(c3ccc(C(=O)NS(=O)(=O)c4ccc(N[C@H](CCN5CCOCC5)CSc5ccccc5)c(S(=O)(=O)C(F)(F)F)c4)cc3)CC2)C1 + CS(=O)(=O)CCNCc1ccc(-c2ccc3ncnc(Nc4ccc(OCc5cccc(F)c5)c(Cl)c4)c3c2)o1 [lapatinib] (first compound 0.4 µM, partner dose 0.8 µM) | 77.6% | 71.5% | 11.5% | 83.5% | 86.1% | 87.2% |
| O=C(/C=C/c1cccnc1)NCCCCC1CCN(C(=O)c2ccccc2)CC1 + CS(=O)(=O)c1ccc(C(=O)Nc2ccc(Cl)c(-c3ccccn3)c2)c(Cl)c1 [vismodegib] (first compound 0.01 µM, partner dose 1 µM) | 97.1% | 94.5% | 98.4% | 100% | 76.3% | 89.9% |
| Cc1ccc(Nc2nccc(N(C)c3ccc4c(C)n(C)nc4c3)n2)cc1S(N)(=O)=O [Pazopanib] + CCCCCCCCc1ccc(CCC(N)(CO)CO)cc1 [fingolimod] (first compound 0.4 µM, partner dose 2 µM) | 78% | 71.7% | 95.7% | 89.1% | 83.3% | 88% |
| Cc1ccc(Nc2nccc(N(C)c3ccc4c(C)n(C)nc4c3)n2)cc1S(N)(=O)=O [Pazopanib] + Cc1cc([N+](=O)[O-])ccc1NS(=O)(=O)c1cc(Cl)ccc1Cl [FH535] (first compound 0.4 µM, partner dose 1 µM) | 93.3% | 73.1% | 97.1% | 87.7% | 99.7% | 81.4% |
| O=C(/C=C/c1cccnc1)NCCCCC1CCN(C(=O)c2ccccc2)CC1 + COc1ccc2c(c1)CCC1C2CCC2(C)C(NCCCCCCN3C(=O)C=CC3=O)CCC12 [U73122] (first compound 0.01 µM, partner dose 0.4 µM) | 90.6% | 94.6% | 98.6% | 91.5% | 87.3% | 94.4% |
